# The supplement of paper PMC8728848
# The list shows a part of the results.
# B1: B1567 (Bifidobacterium sp) (protein)
# chain: MKFTTAKKAVALTGAVAMLVSVAACGSDSGKSSQPAQDSDVKEITVWAWEPSLTQVAKDFEKETGIKVDLKNVGTNTKEYTQLDNAIEAGSGAPDVAQVEYYAVPQYAIKGNLLDITDKTSGYKDFYTPGPWASVQFAGKVYGLPMDSGPMAFFYNKEVFDKAGVDAEQIKTWDQYYDAAKKIHALGDNYYITSDTGDAGFFDSMTWLAGAKPFQTSSDGSEVTVNLTEDKGVKTFTDFWQKLLDEGLLDTKTAGWSEDWFKGMVDGTIASLFTGAWMPANLANSAADGAGKWRVTQMPTADGSTTNSENGGSSLAVLASTKKADAAYQFIEYANHGAGVATRVAGGAFPADKASLEKDSFKNATTVKNADGQDVDYFGGQKYNEVLAQAAENVSSGYQFLPFEVKARTIFGDYFGKSYTGDQKLSDGVAAWQKALQDYGKDQGFTVK
# Columns and labels:
# Test in all cases: glycan array binding signal (z-score within array); higher = stronger binding
# Settings in all cases: glycan notation: IUPAC condensed, linker removed
# [1] = molecular target: Gal(b1-3)GlcNAc(b1-3)Gal(b1-4)GlcNAc(b1-2)[Gal(b1-3)GlcNAc(b1-3)Gal(b1-4)GlcNAc(b1-6)]Man(a1-6)[Gal(b1-3)GlcNAc(b1-3)Gal(b1-4)GlcNAc(b1-2)Man(a1-3)]Man(b1-4)GlcNAc(b1-4)[Fuc(a1-6)]GlcNAc
# Summary of the method: (§1)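 Glycan array data came from 3228 arrays in the Consortium for Functional Glycomics database, and only arrays with an available protein sequence were kept. Glycan names were put into IUPAC-condensed notation, and columns mapping to the same glycan were averaged. The binding signal is a within-array Z-score, averaged across arrays of one protein sequence run at different concentrations or buffers and across linkers. A negative Z-score can be read as non-binding.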
# [2] = molecular target: Gal(b1-3)GlcNAc(b1-3)Gal(b1-4)GlcNAc(b1-3)Gal(b1-4)GlcNAc(b1-2)[Gal(b1-3)GlcNAc(b1-3)Gal(b1-4)GlcNAc(b1-3)Gal(b1-4)GlcNAc(b1-6)]Man(a1-6)[Gal(b1-3)GlcNAc(b1-3)Gal(b1-4)GlcNAc(b1-3)Gal(b1-4)GlcNAc(b1-2)Man(a1-3)]Man(b1-4)GlcNAc(b1-4)[Fuc(a1-6)]GlcNAc
# Summary of the method: as §1
# [3] = molecular target: Gal(b1-3)GlcNAc(b1-3)Gal(b1-4)GlcNAc(b1-6)[Gal(b1-3)GlcNAc(b1-3)]Gal(b1-4)Glc
# Summary of the method: as §1
# [4] = molecular target: Gal(b1-3)GlcNAc(b1-3)Gal(b1-4)[Fuc(a1-3)]GlcNAc
# Summary of the method: as §1
# [5] = molecular target: Gal(b1-3)GlcNAc(b1-3)Gal(b1-4)[Fuc(a1-3)]GlcNAc(b1-6)[Gal(b1-3)GlcNAc(b1-3)]Gal(b1-4)Glc
# Summary of the method: as §1
# [6] = molecular target: Gal(b1-3)GlcNAc(b1-3)GalNAc
# Summary of the method: as §1
# [7] = molecular target: Gal(b1-3)GlcNAc(b1-6)Gal(b1-4)GlcNAc
# Summary of the method: as §1
# [8] = molecular target: Gal(b1-3)GlcNAc(b1-6)GalNAc
# Summary of the method: as §1
# [9] = molecular target: Gal(b1-3)GlcNAc(b1-6)[Gal(b1-3)]GalNAc
# Summary of the method: as §1
# Gal(b1-3)GlcNAc6S = molecular target: Gal(b1-3)GlcNAc6S
# Summary of the method: as §1
# [10] = molecular target: Gal(b1-3)[Fuc(a1-4)]GlcNAc
# Summary of the method: as §1
# [11] = molecular target: Gal(b1-3)[Fuc(a1-4)]GlcNAc(b1-2)Man
# Summary of the method: as §1
# [12] = molecular target: Gal(b1-3)[Fuc(a1-4)]GlcNAc(b1-2)Man(a1-3)[Gal(b1-3)[Fuc(a1-4)]GlcNAc(b1-2)Man(a1-6)]Man(b1-4)GlcNAc(b1-4)[Fuc(a1-6)]GlcNAc
# Summary of the method: as §1
# [13] = molecular target: Gal(b1-3)[Fuc(a1-4)]GlcNAc(b1-3)Gal(b1-3)[Fuc(a1-4)]GlcNAc
# Summary of the method: as §1
# [14] = molecular target: Gal(b1-3)[Fuc(a1-4)]GlcNAc(b1-3)Gal(b1-4)[Fuc(a1-3)]GlcNAc
# Summary of the method: as §1
# [15] = molecular target: Gal(b1-3)[Fuc(a1-4)]GlcNAc(b1-6)GalNAc
# Summary of the method: as §1
# [16] = molecular target: Gal(b1-3)[GlcNAc(b1-6)]GalNAc
# Summary of the method: as §1
# [17] = molecular target: Gal(b1-3)[Neu5Ac(a2-6)]GalNAc
# Summary of the method: as §1
# [18] = molecular target: Gal(b1-3)[Neu5Ac(a2-6)]GlcNAc(b1-4)Gal(b1-4)Glc
# Summary of the method: as §1
# [19] = molecular target: Gal(b1-3)[Neu5Ac(b2-6)]GalNAc
# Summary of the method: as §1
# Gal(b1-4)Gal = molecular target: Gal(b1-4)Gal
# Summary of the method: as §1
# [20] = molecular target: Gal(b1-4)GalNAc(a1-3)[Fuc(a1-2)]Gal(b1-4)GlcNAc
# Summary of the method: as §1
# [21] = molecular target: Gal(b1-4)GalNAc(b1-3)[Fuc(a1-2)]Gal(b1-4)GlcNAc
# Summary of the method: as §1
# Gal(b1-4)Glc = molecular target: Gal(b1-4)Glc
# Summary of the method: as §1
# Gal(b1-4)Glc6S = molecular target: Gal(b1-4)Glc6S
# Summary of the method: as §1
# Gal(b1-4)GlcNAc = molecular target: Gal(b1-4)GlcNAc
# Summary of the method: as §1
# [22] = molecular target: Gal(b1-4)GlcNAc(a1-6)Gal(b1-4)GlcNAc
# Summary of the method: as §1
# Gal(b1-4)GlcNAc(b1-2)Man = molecular target: Gal(b1-4)GlcNAc(b1-2)Man
# Summary of the method: as §1
# [23] = molecular target: Gal(b1-4)GlcNAc(b1-2)Man(a1-3)Man(b1-4)GlcNAc(b1-4)GlcNAc
# Summary of the method: as §1
# [24] = molecular target: Gal(b1-4)GlcNAc(b1-2)Man(a1-3)[Gal(b1-4)GlcNAc(b1-2)Man(a1-6)]Man(b1-4)GlcNAc(b1-4)GlcNAc
# Summary of the method: as §1
# [25] = molecular target: Gal(b1-4)GlcNAc(b1-2)Man(a1-3)[Gal(b1-4)GlcNAc(b1-2)Man(a1-6)]Man(b1-4)GlcNAc(b1-4)[Fuc(a1-6)]GlcNAc
# Summary of the method: as §1
# [26] = molecular target: Gal(b1-4)GlcNAc(b1-2)Man(a1-3)[Gal(b1-4)GlcNAc(b1-2)Man(a1-6)][Gal(b1-4)GlcNAc(b1-4)]Man(b1-4)GlcNAc(b1-4)[Fuc(a1-6)]GlcNAc
# Summary of the method: as §1
# [27] = molecular target: Gal(b1-4)GlcNAc(b1-2)Man(a1-3)[Gal(b1-4)GlcNAc(b1-2)Man(a1-6)][GlcNAc(b1-4)]Man(b1-4)GlcNAc(b1-4)[Fuc(a1-6)]GlcNAc
# Summary of the method: as §1
# [28] = molecular target: Gal(b1-4)GlcNAc(b1-2)Man(a1-3)[GlcNAc(b1-2)Man(a1-6)]Man(b1-4)GlcNAc(b1-4)GlcNAc
# Summary of the method: as §1
# [29] = molecular target: Gal(b1-4)GlcNAc(b1-2)Man(a1-3)[GlcNAc(b1-4)][Gal(b1-4)GlcNAc(b1-2)Man(a1-6)]Man(b1-4)GlcNAc(b1-4)GlcNAc
# Summary of the method: as §1
# [30] = molecular target: Gal(b1-4)GlcNAc(b1-2)Man(a1-3)[Man(a1-6)]Man(b1-4)GlcNAc(b1-4)GlcNAc
# Summary of the method: as §1
# [31] = molecular target: Gal(b1-4)GlcNAc(b1-2)Man(a1-6)Man(b1-4)GlcNAc(b1-4)GlcNAc
# Summary of the method: as §1
# [32] = molecular target: Gal(b1-4)GlcNAc(b1-2)Man(a1-6)[GlcNAc(b1-2)Man(a1-3)]Man(b1-4)GlcNAc(b1-4)GlcNAc
# Summary of the method: as §1
binder,measurement,setting,value
B1,glycan array binding signal (z-score),[1],0.042
same,glycan array binding signal (z-score),[2],0.136
same,glycan array binding signal (z-score),[3],-0.114
same,glycan array binding signal (z-score),[4],-0.153
same,glycan array binding signal (z-score),[5],-0.104
same,glycan array binding signal (z-score),[6],-0.12
same,glycan array binding signal (z-score),[7],-0.148
same,glycan array binding signal (z-score),[8],-0.102
same,glycan array binding signal (z-score),[9],0.016
same,glycan array binding signal (z-score),Gal(b1-3)GlcNAc6S,-0.086
same,glycan array binding signal (z-score),[10],-0.115
same,glycan array binding signal (z-score),[11],-0.049
same,glycan array binding signal (z-score),[12],0.231
same,glycan array binding signal (z-score),[13],-0.09
same,glycan array binding signal (z-score),[14],-0.059
same,glycan array binding signal (z-score),[15],-0.025
same,glycan array binding signal (z-score),[16],-0.138
same,glycan array binding signal (z-score),[17],-0.064
same,glycan array binding signal (z-score),[18],-0.133
same,glycan array binding signal (z-score),[19],-0.084
same,glycan array binding signal (z-score),Gal(b1-4)Gal,-0.11
same,glycan array binding signal (z-score),[20],-0.032
same,glycan array binding signal (z-score),[21],-0.08
same,glycan array binding signal (z-score),Gal(b1-4)Glc,-0.076
same,glycan array binding signal (z-score),Gal(b1-4)Glc6S,-0.091
same,glycan array binding signal (z-score),Gal(b1-4)GlcNAc,0.181
same,glycan array binding signal (z-score),[22],-0.125
same,glycan array binding signal (z-score),Gal(b1-4)GlcNAc(b1-2)Man,-0.12
same,glycan array binding signal (z-score),[23],-0.116
same,glycan array binding signal (z-score),[24],-0.117
same,glycan array binding signal (z-score),[25],-0.032
same,glycan array binding signal (z-score),[26],-0.126
same,glycan array binding signal (z-score),[27],-0.165
same,glycan array binding signal (z-score),[28],-0.051
same,glycan array binding signal (z-score),[29],-0.16
same,glycan array binding signal (z-score),[30],-0.014
same,glycan array binding signal (z-score),[31],-0.101
same,glycan array binding signal (z-score),[32],-0.103
